Scores with a large standard error are left out. Not listed are two conditions whose scores span a narrow range. Names with del lack the residues named; names with ins carry added residues between the positions named. For part of these data: The concentration of ogerin is not given here.
B1: GPR68, Q15743 (parent)
chain: MGNITADNSSMSCTIDHTIHQTLAPVVYVTVLVVGFPANCLSLYFGYLQIKARNELGVYLCNLTVADLFYICSLPFWLQYVLQHDNWSHGDLSCQVCGILLYENIYISVGFLCCISVDRYLAVAHPFRFHQFRTLKAAVGVSVVIWAKELLTSIYFLMHEEVIEDENQHRVCFEHYPIQAWQRAINYYRFLVGFLFPICLLLASYQGILRAVRRSHGTQKSRKDQIQRLVLSTVVIFLACFLPYHVLLLVRSVWEASCDFAKGVFNAYHFSLLLTSFNCVADPVLYCFVSETTHRDLARLRGACLAFLTCSRTGRAREAYPLGAPEASGKSGAQGEEPELLTKLHPAFQTPNSPGSGGFPTGRLA

Legend:
[1] = variants of: B1; assay: cAMP reporter score (Enrich2 score, wild type = 0); higher = more signal; HEK293T, FACS bins
[2] = variants of: B1; assay: surface expression score (Enrich2 score, wild type = 0); higher = more signal; HEK293T, FACS bins

Variant	cAMP reporter score ([1]; pH 5.5)	cAMP reporter score ([1]; pH 6, modulator: ogerin)	cAMP reporter score ([1]; pH 6.5, modulator: ogerin)	surface expression score [2]	cAMP reporter score ([1]; pH 6)
K148Q	-1.28	0.634	0.612	0.188	–
K148E	0.464	1.2	0.02	-0.864	0.601
K148N	1.12	0.836	0.051	1.31	0.61
K148F	0.508	0.443	0.034	1.5	-1.1
K148I	0.516	1.1	2.8	1.4	–
K148H	1.08	0.935	-0.152	2.59	1.63
K148S	0.069	1.14	1.52	0.56	1.19
K148W	-1.61	-1.18	-0.746	0.583	-0.93
K148G	-0.356	0.571	1.75	0.922	-0.301
K148C	0.161	1.19	1.48	1.19	1.69
K148L	0.44	0.935	1.52	1.35	-0.286
K148A	1.14	1.45	3.02	2.01	1.51
K148Y	-1.61	-0.792	-0.882	1.73	-1.28
K148V	0.815	1.26	1.63	1.63	1.01
K148T	2.2	1.93	5.15	3.47	2.58
K148P	-0.295	-0.197	-0.368	-1.65	-1.19

Variant	cAMP reporter score ([1]; pH 5.5)	cAMP reporter score ([1]; pH 6, modulator: ogerin)	cAMP reporter score ([1]; pH 6.5, modulator: ogerin)	surface expression score [2]	cAMP reporter score ([1]; pH 6)
K148R	-0.295	-1.33	-0.913	-2.82	-0.984
K148M	-0.879	-0.469	0.464	-0.394	0.064
K148D	0.171	0.048	0.396	–	-0.495
K148_L150del	-1.73	-1.91	-1.52	-2.52	-1.05
S142_V143insGS	-1.27	-1.38	-1.13	-1.59	-0.733
V144_I145insGS	-0.487	-0.813	-1.04	-2.87	-0.229
V144_I145insGSG	-1.8	-1.27	-1.88	-2.16	-0.375
S142_V143insG	-0.948	-0.76	-0.643	–	–
K136_A137del	-1.42	-1.44	-1.49	-2.39	-1.52
V144_W146del	-0.625	-1.58	-0.843	-2.13	-1.33
A147_E149del	-2	-1.66	-0.204	-2.67	-1.13
A147_K148insGS	-1.43	-1.66	-1.29	-2.55	-1.07
W146del	-1.31	-1.44	-1.71	-2.35	-1.05
A137_A138insG	-1.98	-2.26	-0.594	-2.72	-1.3
V143_V144insG	-1.68	-2.21	-1.52	-2.44	-0.919

— the GPR68 mutational scans of Howard et al. (2025)
